Hit rate of the full screen: of about 310,000 compounds, about 14,000 (4.5%) showed an effect of 50% or more. Effects have a minus sign here. This is one part of the list.
What follows are compounds tested against human ether-à-go-go-related gene (hERG) potassium channel (human, UniProt Q12809) (assay: primary screen, population patch clamp on CHO cells stably expressing hERG).
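Note: peak tail current of the secondary pulse compared with the same well before compound.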

Sequence of human ether-à-go-go-related gene (hERG) potassium channel (Q12809 whole entry, looked up): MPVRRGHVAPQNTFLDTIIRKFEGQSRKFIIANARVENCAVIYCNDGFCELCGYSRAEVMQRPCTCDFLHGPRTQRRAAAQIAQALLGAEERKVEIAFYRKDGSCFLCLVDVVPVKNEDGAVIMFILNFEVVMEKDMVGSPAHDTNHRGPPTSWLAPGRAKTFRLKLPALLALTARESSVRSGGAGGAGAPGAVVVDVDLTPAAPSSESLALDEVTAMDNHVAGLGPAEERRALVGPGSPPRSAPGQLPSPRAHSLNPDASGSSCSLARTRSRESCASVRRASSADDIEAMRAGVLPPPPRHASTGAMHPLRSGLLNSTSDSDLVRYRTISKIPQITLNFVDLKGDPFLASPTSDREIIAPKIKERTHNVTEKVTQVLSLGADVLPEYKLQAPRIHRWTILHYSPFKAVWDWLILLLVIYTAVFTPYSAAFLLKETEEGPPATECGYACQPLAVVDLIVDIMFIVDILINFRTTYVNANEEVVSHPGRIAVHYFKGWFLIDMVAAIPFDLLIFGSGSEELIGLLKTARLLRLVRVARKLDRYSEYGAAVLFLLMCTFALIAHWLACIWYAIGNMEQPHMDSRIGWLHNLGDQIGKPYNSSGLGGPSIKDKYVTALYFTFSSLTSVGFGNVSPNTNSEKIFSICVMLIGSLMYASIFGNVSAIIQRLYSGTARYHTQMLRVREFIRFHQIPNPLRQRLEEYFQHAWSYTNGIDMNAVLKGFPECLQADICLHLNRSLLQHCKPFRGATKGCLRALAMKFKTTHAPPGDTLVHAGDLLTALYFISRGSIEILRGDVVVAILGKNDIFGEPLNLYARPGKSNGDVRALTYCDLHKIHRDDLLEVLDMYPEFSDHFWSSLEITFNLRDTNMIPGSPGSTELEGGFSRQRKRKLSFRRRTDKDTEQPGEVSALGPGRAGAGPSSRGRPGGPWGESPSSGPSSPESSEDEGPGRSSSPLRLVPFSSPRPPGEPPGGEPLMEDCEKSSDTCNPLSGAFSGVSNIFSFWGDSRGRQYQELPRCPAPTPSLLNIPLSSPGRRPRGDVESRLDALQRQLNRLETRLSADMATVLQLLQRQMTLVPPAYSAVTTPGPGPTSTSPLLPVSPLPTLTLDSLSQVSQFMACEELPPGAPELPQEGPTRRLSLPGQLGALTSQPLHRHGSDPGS

Row | SMILES | hERG current change (%, negative = inhibition) at 10uM
1 | Cc1ccc(C)c(S(=O)(=O)N2CCCOC2CNC(=O)C(=O)NCCc2ccco2)c1 (centres unmarked) | -2.72%
2 | O=C(CNC(=O)c1nc[nH]c1C(=O)NCc1ccccc1)OCc1ccccc1 | -15.4%
3 | NS(=O)(=O)c1ccc(NC(=S)N2CCC(Cc3ccccc3)CC2)cc1 | -0.397%
4 | CN1C(C)(C)CC(NC(=O)CCC(=O)NC2CC(C)(C)N(C)C(C)(C)C2)CC1(C)C | 1.51%
5 | CC1(C)CC(=O)C=C(NCc2ccc(C(=O)O)cc2)C1 | 3.79%
6 | CN(C(=O)Oc1ccc(C(=O)c2ccc(Cl)cc2)cc1)c1ccccc1 | 15.4%
7 | C=CCOc1c(CNc2cccc(C(=O)O)c2)cccc1OC | -5.45%
8 | Cc1ccc(NC(=O)CCn2cccc2)cc1Cl | 11.9%
9 | COc1ccccc1/C=C/c1nc(S(=O)(=O)c2ccccc2)c(NCCN(C)C)o1 | -4.99%
10 | Cc1ccc(OCCCn2ccnc2)cc1C | -4.22%
11 | Cn1nnnc1SCC(=O)Nc1ccc(S(=O)(=O)N2CCOCC2)cc1 | 3.21%
12 | Cc1cc2[nH]c(=O)c(=O)[nH]c2cc1S(=O)(=O)NCc1ccccc1 | 22.8%
13 | NC(=O)[C@@H]1CCCNc2c(I)cc([N+](=O)[O-])cc2C(=O)N[C@@H](CCCN=C(N)N)C(=O)N[C@@H](CCCN=C(N)N)C(=O)N1 | 9.33%
14 | O=C(NCCCn1ccnc1)c1ccccc1Br | -11.9%
15 | Oc1ccccc1-[n+]1c(-c2ccccc2)cc(-c2ccccc2)c(O)c1-c1ccccc1.[O-][Cl+3]([O-])([O-])[O-] | 15.1%
16 | Cc1cccc(NC(=O)CCC(=O)NCCO)c1 | 5.96%
17 | CC(=O)N1N=C(c2ccc(C)cc2)OC1c1ccc(C(C)C)cc1 (centres unmarked) | 13.6%
18 | O=C(Nc1ccc(O)cc1)c1ccc(NC(=O)c2ccco2)cc1 | 16.5%
19 | O=C(CCc1nnc2ccc(NCc3ccco3)nn12)N1CCN(c2ccccc2F)CC1 | -20.5%
20 | CCC(CC)C(=O)Nc1nnc(SCC(=O)NC2CCCCC2)s1 | 7.91%
21 | O=C1CCCCCN1Cc1nnc(SCc2nc3ccccc3s2)n1-c1ccccn1 | -3.29%
22 | O=C(CCC(=O)N1CCOc2ccccc21)N1CCCCC1 | -3.26%
23 | Cc1nn(C(C)C(=O)NCCCc2ccccc2)c(=O)c2cc3occc3n12 (centres unmarked) | -24.2%

Row | SMILES | hERG current change (%, negative = inhibition) at 10uM
24 | COc1cccc(NS(=O)(=O)NC(=O)c2c[nH]c3ccccc23)c1 | 10.4%
25 | O=C(OCCN1C(=O)c2ccccc2C1=O)c1cnccn1 | 9.28%
26 | CCC(C(=O)N1CCOCC1)n1nc(C)c2c(C)n(-c3ccccc3)nc2c1=O (centres unmarked) | 7.01%
27 | O=C(NCCS(=O)(=O)N1CCN(c2ccccc2)CC1)C1CC1 | 3.93%
28 | O=C(c1ccc(Cl)c(S(=O)(=O)N2CCCCCC2)c1)N1CCN(c2ccccc2O)CC1 | -31.4%
29 | COc1ccccc1/C=C/C=N/n1c(-c2ccc(Cl)cc2Cl)n[nH]c1=S | 29.2%
30 | O=C(Cn1nnc(-c2ccccc2)n1)N1CCN(S(=O)(=O)c2ccc(Cl)cc2)CC1 | 3.96%
31 | O=C(NCCCN1CCCC1=O)c1cc(-c2ccc3c(c2)OCO3)nc2ccccc12 | -4.06%
32 | COC(=O)c1ccccc1NC(=O)c1nc(S(=O)(=O)Cc2ccccc2)ncc1Cl | 21.2%
33 | CCCCN(CC)CCCNC(=O)CN1C(=O)CSc2ccc(S(=O)(=O)N3CCOCC3)cc21 | 20.7%
34 | O=C(Nc1ccc(N=Nc2ccccc2)cc1)c1ccccc1Cl | 10%
35 | Cc1ccc(-c2noc(C3CCCN(C(=O)c4ccc(C(C)(C)C)cc4)C3)n2)o1 (centres unmarked) | -19.8%
36 | CCNNC(=O)C(O)(c1cccc(C)c1)c1cccc(C)c1 | -0.16%
37 | O=C(COC(=O)c1ccc(Cl)nc1)NCCC1=CCCCC1 | 6.06%
38 | Fc1cc(F)cc(NC(=S)N2CCN(c3ncccn3)CC2)c1 | -10.4%
39 | CCOc1ccc(S(=O)(=O)N(C)c2ccc(OCC(=O)NCC3CCCO3)cc2)cc1 (centres unmarked) | -16.9%
40 | COc1ccc(OC)c(NC(=O)c2ccno2)c1 | 26.7%
41 | O=C1C2C3CCC(CC3)C2C(=O)N1c1ccccc1 (centres unmarked) | 23.9%
42 | O=C1N=C(N2CCN(c3ccccc3)CC2)S/C1=C/c1ccco1 | -53.8%
43 | COc1ccc(S(=O)(=O)N2CCCC2CNC(=O)C(=O)Nc2ccc(C)cc2)cc1 (centres unmarked) | -27.4%
44 | Cc1cc(C(F)(F)F)nc(CCNC(=O)C2CCC(=O)N(Cc3cccc(F)c3)C2)n1 (centres unmarked) | -5.78%
45 | O=C(CN1C(=O)COc2ccc(Cl)cc21)Nc1ccccn1 | 10%
46 | COC(=O)CSc1nnc(-c2ccccn2)n1Cc1ccco1 | -13.8%

Row | SMILES | hERG current change (%, negative = inhibition) at 10uM
47 | O=C(Nc1nccs1)c1cccc(S(=O)(=O)N2CCOCC2)c1 | -9.33%
48 | O=C1N=C(N2CCCCC2)S/C1=C\c1ccncc1 | -5.21%
49 | Br.Clc1ccc2nc(CN3CCCCCC3)cn2c1 | -46.7%
50 | Cc1ccc2nsnc2c1NC(=O)c1cccc([N+](=O)[O-])c1 | 0.518%
51 | Cc1ccc(S(=O)(=O)N(Cc2ccc(Cl)cc2)c2ccccc2C(=O)NCc2ccco2)cc1 | -10.8%
52 | Cc1nc(C)c(C(=O)N/N=C/c2ccco2)s1 | 6.04%
53 | COC(=O)C(F)(Sc1c(C)n(C)n(-c2ccccc2)c1=O)C(F)(F)F (centres unmarked) | -9.14%
54 | Cc1ccncc1C(N)=O | 13.3%
55 | Cc1ccc(C(=O)c2cn[nH]c2-c2cc(Cl)ccc2O)cc1 | 3.03%
56 | CCOC(=O)c1c(C)[nH]c(C(=O)OCC(=O)NC(C)(C)C)c1C | 5.81%
57 | CC(=O)c1cccc(Nc2nc(N3CCOCC3)nc(N3CCOCC3)n2)c1.Cl | 13.7%
58 | CCc1nnc(NC(=O)c2c(OC)cccc2OC)s1 | 6.71%
59 | COC(=O)c1sccc1NC(=O)c1cccnc1 | -10.3%
60 | CC(=O)c1cccc(Nc2cc(C)nc3ccc(C)cc23)c1.Cl | -65.2%
61 | O=C(CCN1C(=O)/C(=C/c2ccccc2Cl)SC1=S)N1CCCC1 | 10.6%
62 | CCCCNC(=O)CCn1c(=O)c2ccccc2n(Cc2ccc(Cl)cc2)c1=O | -9.17%
63 | COc1ccc(CNC(=O)[C@@H](C)NC(=O)C2CCN(C(=O)[C@@H](N)CCSC)CC2)cc1 | 17.5%
64 | Clc1cccc(N2CCN(Cc3nc(-c4ccccc4)no3)CC2)c1 | -12%
65 | CC1(C)CC(=O)C(C=NCC2CCN(C(=O)Nc3ccc(Cl)c(Cl)c3)CC2)=C(O)C1 | -23.8%
66 | Cn1cc(CN2C[C@]3(C)C[C@H]2CC(C)(C)C3)c(-c2ccc3c(c2)OCCO3)n1 | -4.94%
67 | CC(C)n1cc(C(=O)N(CC(=O)NC(C)(C)C)Cc2ccccc2)cn1 | 6.03%
68 | c1ccc(-n2nnc3c(N4CCOCC4)ncnc32)cc1 | -16.8%
69 | O=C(O)C1(O)C[C@H](O)C(O)[C@@H](O)C1 (some centres unmarked) | 13.9%

Row | SMILES | hERG current change (%, negative = inhibition) at 10uM
70 | COC(=O)c1c(C(=O)OC)c(-c2ccc(OC)cc2)n2c1CCC2 | 6.63%
71 | COc1c(Br)cc(C(N)=O)cc1OCc1ccccc1 | 10.4%
72 | COc1cc(C=O)ccc1OCC(=O)Nc1cccc(S(=O)(=O)N(C)c2ccccc2)c1 | -30.1%
73 | O=C(Cn1cnc2c(oc3ccccc32)c1=O)NCCc1ccccc1 | -3.66%
74 | Cc1ccccc1NC(=O)N1C2CCC1CC(O)(c1cccnc1)C2 (centres unmarked) | -3.64%
75 | CN(C)/C=N/n1cnc2ccccc2c1=O | 16.8%
76 | Cc1cc(C)c(NC(=O)c2ccccc2CCc2ccccc2)c(C)c1 | 3.43%
77 | COc1ccccc1OCCNC1CCCC1 | -5.7%
78 | Cc1[nH]n(C)c(=O)c1C(=O)c1c(-c2ccccc2Cl)noc1C | 1.23%
79 | Cn1cnnc1SCC(=O)Nc1ccc(S(N)(=O)=O)cc1 | 17.5%
80 | Cc1ccc(S(=O)(=O)NCCCN2CCCC2)cc1 | 8.31%
81 | O=C(Cn1cnc2ccccc21)NCCCN1CCOCC1 | -10.3%
82 | O=C(CCn1nc(-c2ccc(Cl)cc2)c2ccccc2c1=O)NCC1CCCO1 (centres unmarked) | -32%
83 | CCOCCCN(CC(=O)NC1CCCC1)C(=O)C(=O)Nc1ccc2c(c1)OCCO2 | 14.9%
84 | Cn1c(-c2ccccc2)cnc1NCc1ccc(-c2ccccc2)cc1.O=C(O)C(=O)O | -10.4%
85 | O=C(Nc1nnc(-c2ccc(Br)cc2)o1)C1=COCCO1 | 3.07%
86 | CCCCCC(=O)NC(=S)Nc1ccc(Br)cc1C | 18.5%
87 | C=CCN1C(=O)[C@]2(c3ccccc31)C1CCCC=C1C(C#N)=C(N)C2(C#N)C#N (some centres unmarked) | -4.68%
88 | CCOC(=O)c1cccc(-n2c(C)cc(C=O)c2C)c1 | 2.46%
89 | CC(C)(C)n1cc(C(=O)c2ccc3ccccc3c2O)cn1 | 12.6%

Reference: paper PMC4336329 (PLoS ONE, 2015)
